Test in all cases: Primary Screen for Target Class Profiling of Small Molecule Inhibitors of Methyltransferases
The target of assay [1] is Glycine N-methyltransferase (Homo sapiens) (UniProt Q14749). The settings on record: purified enzyme, MTase-Glo SAH luminescence; measured here: GNMT inhibition; at 40 µM; stronger effect = lower value. In outline: (§1)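 Each enzyme was reacted with SAM and its substrate, with compounds tested once at 40 uM; SAH formed was read by MTase-Glo luminescence.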
For assay [2], the target named is Guanidinoacetate N-methyltransferase (Homo sapiens) (UniProt Q14353). The following applies: purified enzyme, MTase-Glo SAH luminescence; measured here: GAMT inhibition; at 40 µM; stronger effect = lower value. In outline:
as §1

The target in assay [3] is Histamine N-methyltransferase (Homo sapiens) (UniProt P50135). The following applies: purified enzyme, MTase-Glo SAH luminescence; measured here: HNMT inhibition; at 40 µM; stronger effect = lower value. In outline: as §1
The target in assay [4] is Nicotinamide N-methyltransferase (Homo sapiens) (UniProt P40261). The following applies: purified enzyme, MTase-Glo SAH luminescence; measured here: NNMT inhibition; at 40 µM; stronger effect = lower value. In outline: as §1
Assay [5] concerns the target Phenylethanolamine N-methyltransferase (Homo sapiens) (UniProt P11086). The following applies: purified enzyme, MTase-Glo SAH luminescence; measured here: PNMT inhibition; at 40 µM; stronger effect = lower value. In outline: as §1

The record followed here is PubChem BioAssay AID1745853 (National Center for Advancing Translational Sciences (NCATS), 2022).

This is one part of the list. Shown are side measurements of this screen, not its main read-out; they come without a call.
On the % scale 0 is the no-effect control and ±100 the full control effect.

As to `CCCCN1C(=O)c2cc(C(=O)NCc3ccc(OC)cc3OC)nn2CC1(C)C(=O)NC1CCCC1` (configuration not stated), the activity change, negative = inhibition in assay [1] is -6.75%; in assay [2], 0.88%; in assay [3], -8.08%; in assay [4], -43.8%; in assay [5], -4.81%.

On to `CN(C)CCCNc1nc(CN2CCN(C(c3ccc(Cl)cc3)c3ccc(Cl)cc3)CC2)nc2ccccc12`, for which the activity change, negative = inhibition was -0.453% in assay [1]; 4.72% in assay [2]; -42.1% in assay [3]; -56% in assay [4]; -2.1% in assay [5].

For `COc1ccc(-c2n[nH]n3c2nc(=O)c2ccc(C(=O)NCCc4ccccc4)cc23)cc1`, the activity change, negative = inhibition in assay [1] stood at 5.46%; in assay [2] it was 0.693%; in assay [3], 7.96%; in assay [4] it was 6.05%; in assay [5] it was 3.11%.

As for `COc1cc(SC)ccc1C(=O)N1CCC(Cc2ccccc2)CC1`, the activity change, negative = inhibition was -12.8% in assay [1]; 1.34% in assay [2]; -4.91% in assay [3]; -17.2% in assay [4]; -1.28% in assay [5].

Regarding `CSc1cccc(N2C(=O)CSc3c(c4ccccc4n3C)C2C(=O)NCc2ccccc2)c1` (configuration not stated), the activity change, negative = inhibition in assay [1] is 3.38%; in assay [2], 0%; in assay [3], -0.139%; in assay [4] it was -3.37%; in assay [5], 2.65%.

For the compound `O=c1cc(-c2ccccc2)c2ccc(OCc3ccc(F)cc3Cl)cc2o1`, the activity change, negative = inhibition in assay [1] was 0.458%; in assay [2], 0.91%; in assay [3], 4.83%; in assay [4], 5.12%; in assay [5], -0.388%.

`CN(C)c1cccc(Oc2nnnn2[C@H]2CO[C@H]3[C@@H]2OC[C@@H]3NCC2CC2)c1`: the activity change, negative = inhibition in assay [1] is -2.77%; in assay [2], -3.17%; in assay [3], -2.93%; in assay [4] it was -4.75%; in assay [5], -2.45%.

As to `COc1ccc([C@@H]2CN(C(=O)CCc3c(C)noc3C)C[C@H]2N(C)C)cc1`, the activity change, negative = inhibition was -7.17% in assay [1]; -10.3% in assay [2]; -7.93% in assay [3]; -23.2% in assay [4]; -14.3% in assay [5].

Regarding `CC1(C(=O)NC2CCCCC2)Cn2c(ccc2-c2ccccc2)C(=O)N1Cc1ccc2c(c1)OCO2` (configuration not stated), the activity change, negative = inhibition was -1.59% in assay [1]; 0% in assay [2]; -1.94% in assay [3]; 1.34% in assay [4]; 2.09% in assay [5].

Consider `CCCN1C(=O)c2cc(C(=O)NCc3ccccc3F)nn2CC1(C)C(=O)NC1CCCC1` (configuration not stated), for which the activity change, negative = inhibition in assay [1] is 1.53%; in assay [2], 0%; in assay [3], 2.12%; in assay [4], 2.26%; in assay [5], -2.86%.

Regarding `CC(C)OCCCn1c(=O)c2ccccc2n2c(CCC(=O)N3CCN(Cc4ccccc4)CC3)nnc12`, the activity change, negative = inhibition is -8.01% in assay [1]; 0% in assay [2]; 1.55% in assay [3]; 1.96% in assay [4]; -1.05% in assay [5].

As for `CN(C)C(=O)N1CCN(c2ccc(Cl)nn2)C(=O)C1`, the activity change, negative = inhibition in assay [1] was -6.93%; in assay [2], -7.29%; in assay [3] it was -5.46%; in assay [4], -11.1%; in assay [5], 0.418%.

In the case of `CCn1c(=O)c(-c2ccn[nH]2)cc2c(C)nc(N)nc21`, the activity change, negative = inhibition in assay [1] is -14.1%; in assay [2], -4.11%; in assay [3], -0.893%; in assay [4] it was -14.7%; in assay [5] it was -9.58%.

Regarding `CN(C)c1nc(NC2CC(c3cc(=O)[nH]c(C4CC4)n3)C2)ncc1F` (configuration not stated), the activity change, negative = inhibition was -15% in assay [1]; -8.52% in assay [2]; -37.2% in assay [3]; -16.1% in assay [4]; -13.1% in assay [5].

Turning to `COc1ccc(-c2[nH]ncc2CN2CC[C@H]3CC[C@@H](C2)N3)cc1`, the activity change, negative = inhibition in assay [1] was -7.24%; in assay [2], -5.99%; in assay [3], -57.6%; in assay [4], -12%; in assay [5], -4.69%.

As for `CCOC(=O)c1cc2n(n1)CC(C)(C(=O)NCCOC)N(Cc1ccccc1OC)C2=O` (configuration not stated), the activity change, negative = inhibition in assay [1] is 2%; in assay [2] it was 5.69%; in assay [3] it was 4.59%; in assay [4], 2.88%; in assay [5] it was 0.939%.

As for `COC(=O)N[C@@H](C)CNc1nccc(-c2cn(C(C)C)nc2-c2cc(Cl)cc(NS(C)(=O)=O)c2F)n1`, the activity change, negative = inhibition in assay [1] was -12.7%; in assay [2] it was -25.8%; in assay [3], -6.3%; in assay [4], -32.2%; in assay [5], -18.6%.

Consider `CCCN1C(=O)c2c(C(=O)NCc3ccccc3F)ncn2CC1(C)C(=O)NCc1ccc(C)cc1` (configuration not stated), for which the activity change, negative = inhibition is -5.28% in assay [1]; 0% in assay [2]; -2.69% in assay [3]; -1.65% in assay [4]; 1.04% in assay [5].

For the compound `C[N+]1(CC2COC(c3ccccc3)(c3ccccc3)O2)CCCCC1` (configuration not stated), the activity change, negative = inhibition in assay [1] was -2.4%; in assay [2], 8.34%; in assay [3], -18.8%; in assay [4], -20.4%; in assay [5], -10.9%.

For the compound `CCc1cccc(CC)c1NC(=O)N1Cc2[nH]nc(NC(=O)c3ccc(N4CCN(C)CC4)cc3)c2C1`, the activity change, negative = inhibition in assay [1] is -0.582%; in assay [2] it was 10.3%; in assay [3], -19.2%; in assay [4] it was -10.4%; in assay [5], -1.2%.

In the case of `Cc1noc(C)c1[S+](=O)([O-])N1CCCC1C(=O)N1CCC(c2nc3ccncc3[nH]2)CC1` (configuration not stated), the activity change, negative = inhibition was -5.58% in assay [1]; -10.9% in assay [2]; -10.2% in assay [3]; -16.3% in assay [4]; -10.7% in assay [5].

For `O=C1OCC2(CCN(Cc3c[nH]c4ccccc34)C2)N1Cc1ccccc1` (configuration not stated), the activity change, negative = inhibition was -8.71% in assay [1]; -6.12% in assay [2]; -7.4% in assay [3]; -15.9% in assay [4]; -14.2% in assay [5].

As to `O=C(NCc1ccc(F)cc1)c1ccc2c(=O)nc3c(-c4ccccc4F)n[nH]n3c2c1`, the activity change, negative = inhibition in assay [1] was -21.1%; in assay [2] it was 4.83%; in assay [3], 1.15%; in assay [4], 1.58%; in assay [5], -0.288%.

For the compound `COc1cccc(CN2CCC(C(=O)N3CCCCCCNC(=O)CC3)CC2)c1`, the activity change, negative = inhibition is -3.81% in assay [1]; -4.56% in assay [2]; -5.8% in assay [3]; -12% in assay [4]; -4.48% in assay [5].

Regarding `COC(=O)C1=CO[C@@H](O[C@@H]2O[C@H](CO)[C@@H](O)[C@H](O)[C@H]2O)C2C1CC(O)C2C` (some centres not stated), the activity change, negative = inhibition in assay [1] amounted to 3.34%; in assay [3], 4.96%.

On to `CCC(C)NC(=O)c1ccc2c(=O)n(C)c3nnc(SCC(=O)NC4CCCC4)n3c2c1` (configuration not stated), for which the activity change, negative = inhibition in assay [1] came out at 5.42%; in assay [2] it was 0%; in assay [3], 7.31%; in assay [4], 7.71%; in assay [5] it was 5.05%.

As for `CC(C)n1cnc2c(Nc3cccc(Cl)c3)nc(NCCO)nc21`, the activity change, negative = inhibition in assay [1] is -16.5%; in assay [2], -12.4%; in assay [3] it was -12.6%; in assay [4] it was -28.4%; in assay [5], -11.6%.

With `CC1(C(=O)NC2CCCCCC2)Cn2c(cc3sccc32)C(=O)N1Cc1ccco1` (configuration not stated), the activity change, negative = inhibition in assay [1] is -0.413%; in assay [2], 2.85%; in assay [3], -3.99%; in assay [4], -3.94%; in assay [5] it was -6.03%.

For the compound `COCCNC(=O)c1cc(-c2ccc(Cl)nc2)nc2c1cnn2C`, the activity change, negative = inhibition in assay [1] was -6.74%; in assay [2], -0.776%; in assay [3], -3.16%; in assay [4], -10.6%; in assay [5], -3.29%.

For `CCCn1c(=O)c2ccccc2n2c(SCC(=O)Nc3ccccc3OC)nnc12`, the activity change, negative = inhibition is -8.47% in assay [1]; 3.07% in assay [2]; 4.71% in assay [3]; -7.35% in assay [4]; -0.801% in assay [5].
